Assay results as given in the supplement of paper PMC12217912.
The list shows a part of the results. Sequences were assembled here from the parent chain. Values near 0.05 are background.

B1: TEV protease; numbered along this chain (parent)
chain: MGESLFKGPRDYNPISSSICHLTNESDGHTTSLYGIGFGPFIITNKHLFRRNNGTLVVQSLHGVFKVKDTTTLQQHLVDGRDMIIIRMPKDFPPFPQKLKFREPQREERICLVTTNFQTKSMSSMVSDTSCTFPSGDGIFWKHWIQTKDGQCGSPLVSTRDGFIVGIHSASNFTNTNNYFTSVPKNFMELLTNQEAQQWVSGWRLNADSVLWGGHKVFMVKPEEPFQPVKEATQL

Variants of: B1
Test: raw area under fraction-flipped curve 0-4 h after induction (AUC4h, not background-subtracted), DNA-recorder readout of cleavage of the substrate (dimensionless); higher = more cleavage of the substrate by the protease variant
Settings: temperature: 34 °C; time window: 0-4 h after rhamnose induction
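Also: Bxb1 expression induced with 0.2% (w/v) L-rhamnose at OD600 near 0.5, cultures sampled hourly, flipped fraction per protease–substrate barcode pair counted by paired-end Illumina sequencing.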

Variant | area with substrate ECLYFQS | area with substrate EELYFQS | area with substrate EGLYFQS | area with substrate EHLYFQS | area with substrate ELLYFQS | area with substrate EMLYFQS | area with substrate EPLYFQS | area with substrate EQLYFQS | area with substrate ERLYFQS | area with substrate ESLYFQS | area with substrate EVLYFQS | area with substrate EFLYFQS | area with substrate EILYFQS | area with substrate ETLYFQS | area with substrate EWLYFQS | area with substrate EYLYFQS | area with substrate EKLYFQS | area with substrate EDLYFQS
MGESLFKGPRDYNPISSSICHLTNESDGHTTSLYGIGFGPFIITNKHLFRRNNGTLVVQSLHGVFKVKDTTTLQQHLVDGRDMIIIRMPKDFPPFPQKLKFREPQREERICLVTTNFQTKSMSSMVSDTSCTFPSGDGIFWKHWIQTKDGQNGSPLVSTRDGFIVGIHSASNFTNTNNYFTSVPKNFMELLTNQEAQQWVSGWRLNADSVLWGGHKVFMVKPEEPFQPVKEATQL [C152N] | 0.068 | 0.0554 | 0.063 | 0.099 | 0.0591 | 0.0608 | 0.064 | 0.075 | 0.0617 | 0.0468 | 0.051 | – | – | – | – | – | – | –
MGESLFKGPRDYNPISSSICHLTNESDGHTTSLYGIGFGPFIITNKHLFRRNNGTLVVQSLHGVFKVKDTTTLQQHLVDGRDMIIIRMPKDFPPFPQKLKFREPQREERICLVTTNFQTKSMSSMVSDTSCTFPSGDGIFWKHWIQTKDGQCGSPTVSTRDGFIVGIHSASNFTNTNNYFTSVPKNFMELLTNQEAQQWVSGWRLNADSVLWGGHKVFMVKPEEPFQPVKEATQL [L156T] | 0.0933 | 0.115 | – | 0.0986 | 0.0957 | 0.123 | – | 0.112 | 0.0728 | – | 0.0659 | 0.129 | 0.0996 | – | – | – | – | –
MGESLFKGPRDYNPISSSICHLTNESDGHTTSLYGIGFGPFIITNKHLFRRNNGTLVVQSLHGVFKVKDTTTLQQHLVDGRDMIIIRMPKDFPPFPQKLKFREPQREERICLVTTNFQTKSMSSMVSDTSCTFPSGDGIFWKHWIQTKDGQCGSPLVSDRDGFIVGIHSASNFTNTNNYFTSVPKNFMELLTNQEAQQWVSGWRLNADSVLWGGHKVFMVKPEEPFQPVKEATQL [T159D] | 0.0986 | 0.111 | – | – | 0.0882 | 0.112 | – | – | 0.112 | 0.127 | 0.0836 | – | 0.068 | 0.0881 | – | – | – | –
MGESLFKGPRDYNPISSSICHLTNESDGHTTSLYGIGFGPFIITNKHLFRRNNGTLVVQSLHGVFKVKDTTTLQQHLVDGRDMIIIRMPKDFPPFPQKLKFREPQREERICLVTTNFQTKSMSSMVSDTSCTFPSGDGIFWKHWIQTKDGQCGSPLVSSRDGFIVGIHSASNFTNTNNYFTSVPKNFMELLTNQEAQQWVSGWRLNADSVLWGGHKVFMVKPEEPFQPVKEATQL [T159S] | 0.119 | 0.115 | – | 0.0965 | – | – | 0.097 | – | 0.0862 | 0.0857 | – | – | 0.0894 | 0.118 | 0.0842 | 0.108 | – | –
MGESLFKGPRDYNPISSSICHLTNESDGHTTSLYGIGFGPFIITNKHLFRRNNGTLVVQSLHGVFKVKDTTTLQQHLVDGRDMIIIRMPKDFPPFPQKLKFREPQREERICLVTTNFQTKSMSSMVSDTSCTFPSGDGIFWKHWIQTKDGQCGSPLVSTLDGFIVGIHSASNFTNTNNYFTSVPKNFMELLTNQEAQQWVSGWRLNADSVLWGGHKVFMVKPEEPFQPVKEATQL [R160L] | 0.079 | – | 0.0887 | – | – | 0.092 | – | – | – | – | – | 0.104 | – | – | – | 0.0585 | – | –
MGESLFKGPRDYNPISSSICHLTNESDGHTTSLYGIGFGPFIITNKHLFRRNNGTLVVQSLHGVFKVKDTTTLQQHLVDGRDMIIIRMPKDFPPFPQKLKFREPQREERICLVTTNFQTKSMSSMVSDTSCTFPSGDGIFWKHWIQTKDGQCGSPLVSTRIGFIVGIHSASNFTNTNNYFTSVPKNFMELLTNQEAQQWVSGWRLNADSVLWGGHKVFMVKPEEPFQPVKEATQL [D161I] | 0.0603 | 0.0517 | – | 0.0517 | 0.0609 | – | – | – | 0.0446 | 0.0453 | – | 0.0575 | 0.086 | – | 0.0597 | – | 0.0602 | –
MGESLFKGPRDYNPISSSICHLTNESDGHTTSLYGIGFGPFIITNKHLFRRNNGTLVVQSLHGVFKVKDTTTLQQHLVDGRDMIIIRMPKDFPPFPQKLKFREPQREERICLVTTNFQTKSMSSMVSDTSCTFPSGDGIFWKHWIQTKDGQCGSPLVSTRMGFIVGIHSASNFTNTNNYFTSVPKNFMELLTNQEAQQWVSGWRLNADSVLWGGHKVFMVKPEEPFQPVKEATQL [D161M] | 0.0555 | – | – | 0.0644 | – | 0.0653 | 0.0402 | 0.047 | – | 0.0591 | – | – | 0.0622 | – | – | – | 0.0484 | 0.0624
MGESLFKGPRDYNPISSSICHLTNESDGHTTSLYGIGFGPFIITNKHLFRRNNGTLVVQSLHGVFKVKDTTTLQQHLVDGRDMIIIRMPKDFPPFPQKLKFREPQREERICLVTTNFQTKSMSSMVSDTSCTFPSGDGIFWKHWIQTKDGQCGSPLVSTRDIFIVGIHSASNFTNTNNYFTSVPKNFMELLTNQEAQQWVSGWRLNADSVLWGGHKVFMVKPEEPFQPVKEATQL [G162I] | 0.0742 | – | 0.0633 | – | – | 0.0664 | – | 0.0751 | – | 0.0727 | 0.0802 | 0.07 | – | – | – | – | 0.077 | –
MGESLFKGPRDYNPISSSICHLTNESDGHTTSLYGIGFGPFIITNKHLFRRNNGTLVVQSLHGVFKVKDTTTLQQHLVDGRDMIIIRMPKDFPPFPQKLKFREPQREERICLVTTNFQTKSMSSMVSDTSCTFPSGDGIFWKHWIQTKDGQCGSPLVSTRDKFIVGIHSASNFTNTNNYFTSVPKNFMELLTNQEAQQWVSGWRLNADSVLWGGHKVFMVKPEEPFQPVKEATQL [G162K] | 0.103 | 0.128 | 0.126 | 0.101 | – | – | 0.109 | 0.102 | – | – | 0.0859 | – | – | – | – | – | – | 0.0787
MGESLFKGPRDYNPISSSICHLTNESDGHTTSLYGIGFGPFIITNKHLFRRNNGTLVVQSLHGVFKVKDTTTLQQHLVDGRDMIIIRMPKDFPPFPQKLKFREPQREERICLVTTNFQTKSMSSMVSDTSCTFPSGDGIFWKHWIQTKDGQCGSPLVSTRDWFIVGIHSASNFTNTNNYFTSVPKNFMELLTNQEAQQWVSGWRLNADSVLWGGHKVFMVKPEEPFQPVKEATQL [G162W] | 0.121 | – | 0.0873 | – | – | 0.0843 | 0.102 | 0.0977 | 0.0712 | 0.0893 | 0.0723 | – | 0.0536 | 0.0762 | 0.0616 | 0.11 | 0.111 | 0.128
